# The list shows a part of the results. The full chains were built here from the parent and the listed change. Values near 0.05 are background.
# B1: TEV protease; numbered along this chain (parent)
# chain: MGESLFKGPRDYNPISSSICHLTNESDGHTTSLYGIGFGPFIITNKHLFRRNNGTLVVQSLHGVFKVKDTTTLQQHLVDGRDMIIIRMPKDFPPFPQKLKFREPQREERICLVTTNFQTKSMSSMVSDTSCTFPSGDGIFWKHWIQTKDGQCGSPLVSTRDGFIVGIHSASNFTNTNNYFTSVPKNFMELLTNQEAQQWVSGWRLNADSVLWGGHKVFMVKPEEPFQPVKEATQL
# Variants of: B1
# Test: raw area under fraction-flipped curve 0-4 h after induction (AUC4h, not background-subtracted), DNA-recorder readout of cleavage of the substrate (dimensionless); higher = more cleavage of the substrate by the protease variant
# Details: temperature: 34 °C; time window: 0-4 h after rhamnose induction
# Protocol: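 In vivo DNA recorder in E. coli TOP10(DE3) ΔrhaA at 34 °C. Each TEVp single-site mutant (parent TEVp 0) is paired with a single-site variant of the 7-mer TEVs (canonical ENLYFQ|S). The substrate sits between flexible linkers in a Bxb1-sfGFP-TEVs-SsrA fusion, so cleavage stabilises Bxb1 and speeds flipping of a recombination array, read by NGS. The value is the raw area under the fraction-flipped curve over 0-4 h after rhamnose induction (AUC4h), with ≥20 reads per time point. It is not background-subtracted; inactive controls average about 0.047.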
# 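Also: Bxb1 expression induced with 0.2% (w/v) L-rhamnose at OD600 near 0.5, cultures sampled hourly, flipped fraction per protease–substrate barcode pair counted by paired-end Illumina sequencing.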
variant,measurement,value
S209W,area with substrate ENLYFAS,0.0676
same,area with substrate ENLYFES,0.0784
same,area with substrate ENLYFIS,0.0643
same,area with substrate ENLYFMS,0.0772
same,area with substrate ENLYFPS,0.0811
same,area with substrate ENLYFSS,0.0624
same,area with substrate ENLYFTS,0.0605
same,area with substrate ENLYFVS,0.0553
T31I,area with substrate ENLYFAS,0.0592
same,area with substrate ENLYFCS,0.0711
same,area with substrate ENLYFES,0.0743
same,area with substrate ENLYFGS,0.0408
same,area with substrate ENLYFHS,0.0614
same,area with substrate ENLYFIS,0.0605
same,area with substrate ENLYFMS,0.0584
same,area with substrate ENLYFNS,0.0675
same,area with substrate ENLYFRS,0.079
same,area with substrate ENLYFTS,0.0588
same,area with substrate ENLYFWS,0.0715
same,area with substrate ENLYFYS,0.0525
S182H,area with substrate ENLYFAS,0.0668
same,area with substrate ENLYFDS,0.0638
same,area with substrate ENLYFES,0.0551
same,area with substrate ENLYFGS,0.0612
same,area with substrate ENLYFHS,0.0538
same,area with substrate ENLYFIS,0.0578
same,area with substrate ENLYFKS,0.0491
same,area with substrate ENLYFMS,0.0472
same,area with substrate ENLYFPS,0.0574
same,area with substrate ENLYFRS,0.0433
same,area with substrate ENLYFTS,0.059
same,area with substrate ENLYFWS,0.0379
same,area with substrate ENLYFYS,0.0383
N193Y,area with substrate ENLYFAS,0.0663
same,area with substrate ENLYFCS,0.0545
same,area with substrate ENLYFES,0.0679
same,area with substrate ENLYFFS,0.0774
same,area with substrate ENLYFHS,0.0682
same,area with substrate ENLYFIS,0.0596
same,area with substrate ENLYFLS,0.0617
same,area with substrate ENLYFMS,0.0606
same,area with substrate ENLYFPS,0.0825
same,area with substrate ENLYFRS,0.0562
Q75M,area with substrate ENLYFAS,0.0652
same,area with substrate ENLYFES,0.0504
same,area with substrate ENLYFIS,0.0583
same,area with substrate ENLYFKS,0.041
same,area with substrate ENLYFMS,0.0658
same,area with substrate ENLYFNS,0.0498
same,area with substrate ENLYFPS,0.0573
same,area with substrate ENLYFYS,0.0678
N172R,area with substrate ENLYFAS,0.0568
same,area with substrate ENLYFCS,0.0532
same,area with substrate ENLYFGS,0.0485
same,area with substrate ENLYFHS,0.0577
same,area with substrate ENLYFIS,0.0538
same,area with substrate ENLYFKS,0.0644
same,area with substrate ENLYFLS,0.0596
same,area with substrate ENLYFMS,0.0623
same,area with substrate ENLYFNS,0.0563
same,area with substrate ENLYFPS,0.0686
same,area with substrate ENLYFSS,0.0639
same,area with substrate ENLYFTS,0.0661
same,area with substrate ENLYFWS,0.0559
same,area with substrate ENLYFYS,0.0627
F65P,area with substrate ENLYFAS,0.0503
same,area with substrate ENLYFDS,0.0384
same,area with substrate ENLYFES,0.0221
same,area with substrate ENLYFFS,0.0428
same,area with substrate ENLYFHS,0.0511
same,area with substrate ENLYFIS,0.0366
same,area with substrate ENLYFKS,0.0514
same,area with substrate ENLYFNS,0.0419
same,area with substrate ENLYFPS,0.06
same,area with substrate ENLYFRS,0.0395
same,area with substrate ENLYFSS,0.0526
same,area with substrate ENLYFTS,0.0625
same,area with substrate ENLYFVS,0.041
same,area with substrate ENLYFYS,0.0373
G213H,area with substrate ENLYFAS,0.0617
same,area with substrate ENLYFCS,0.0554
same,area with substrate ENLYFES,0.0561
same,area with substrate ENLYFKS,0.0561
same,area with substrate ENLYFMS,0.0587
same,area with substrate ENLYFYS,0.0593
H215I,area with substrate ENLYFAS,0.0634
G153F,area with substrate ENLYFAS,0.0339
same,area with substrate ENLYFFS,0.0615
same,area with substrate ENLYFHS,0.0561
same,area with substrate ENLYFIS,0.0511
same,area with substrate ENLYFMS,0.0432
same,area with substrate ENLYFNS,0.0804
same,area with substrate ENLYFPS,0.0644
same,area with substrate ENLYFRS,0.0491
same,area with substrate ENLYFYS,0.0505
G153L,area with substrate ENLYFAS,0.0495
same,area with substrate ENLYFES,0.0632
same,area with substrate ENLYFFS,0.0533
same,area with substrate ENLYFIS,0.043
same,area with substrate ENLYFKS,0.0641
same,area with substrate ENLYFLS,0.0274
same,area with substrate ENLYFMS,0.0589
same,area with substrate ENLYFNS,0.0265
same,area with substrate ENLYFRS,0.0363
same,area with substrate ENLYFSS,0.0514
same,area with substrate ENLYFTS,0.0459
same,area with substrate ENLYFVS,0.0351
same,area with substrate ENLYFWS,0.0459
same,area with substrate ENLYFYS,0.0443
G153M,area with substrate ENLYFAS,0.0392
same,area with substrate ENLYFCS,0.0377
same,area with substrate ENLYFES,0.0512
same,area with substrate ENLYFFS,0.0411
same,area with substrate ENLYFGS,0.0494
same,area with substrate ENLYFHS,0.046
same,area with substrate ENLYFMS,0.041
same,area with substrate ENLYFNS,0.0573
same,area with substrate ENLYFRS,0.0473
same,area with substrate ENLYFSS,0.0384
same,area with substrate ENLYFTS,0.0449
same,area with substrate ENLYFYS,0.0496
T176Q,area with substrate ENLYFAS,0.0709
same,area with substrate ENLYFFS,0.0823
same,area with substrate ENLYFHS,0.054
same,area with substrate ENLYFIS,0.0424
same,area with substrate ENLYFPS,0.0636
same,area with substrate ENLYFRS,0.0506
same,area with substrate ENLYFSS,0.0297
E195T,area with substrate ENLYFAS,0.0521
same,area with substrate ENLYFDS,0.0647
same,area with substrate ENLYFES,0.0527
same,area with substrate ENLYFFS,0.0639
same,area with substrate ENLYFIS,0.0438
same,area with substrate ENLYFPS,0.0717
same,area with substrate ENLYFSS,0.0493
same,area with substrate ENLYFTS,0.0525
S154V,area with substrate ENLYFAS,0.0572
same,area with substrate ENLYFES,0.0676
same,area with substrate ENLYFFS,0.0759
same,area with substrate ENLYFHS,0.0765
same,area with substrate ENLYFIS,0.045
same,area with substrate ENLYFKS,0.0584
same,area with substrate ENLYFMS,0.0554
same,area with substrate ENLYFNS,0.0577
same,area with substrate ENLYFPS,0.0701
K185V,area with substrate ENLYFAS,0.0589
same,area with substrate ENLYFDS,0.0561
same,area with substrate ENLYFES,0.0822
same,area with substrate ENLYFIS,0.0614
same,area with substrate ENLYFVS,0.0764
same,area with substrate ENLYFWS,0.0498
K185A,area with substrate ENLYFAS,0.0599
same,area with substrate ENLYFCS,0.121
same,area with substrate ENLYFES,0.0643
same,area with substrate ENLYFIS,0.0503
same,area with substrate ENLYFMS,0.0721
same,area with substrate ENLYFNS,0.0646
same,area with substrate ENLYFPS,0.044
same,area with substrate ENLYFVS,0.0653
same,area with substrate ENLYFYS,0.0459
R81P,area with substrate ENLYFAS,0.0533
same,area with substrate ENLYFFS,0.0753
same,area with substrate ENLYFPS,0.0514
same,area with substrate ENLYFTS,0.0446
K7Y,area with substrate ENLYFAS,0.0567
same,area with substrate ENLYFES,0.0776
same,area with substrate ENLYFHS,0.0689
same,area with substrate ENLYFIS,0.0607
same,area with substrate ENLYFLS,0.0565
same,area with substrate ENLYFNS,0.0634
same,area with substrate ENLYFWS,0.0434
